From article PMC4336329 (PLoS ONE, 2015)
The campaign covered roughly 310,000 compounds. About 14,000 (4.5%) showed an effect of 50% or more. The effect is printed as a negative number. This is one part of the list.

What follows are compounds tested against human ether-à-go-go-related gene (hERG) potassium channel (human, UniProt Q12809) (assay: primary screen, population patch clamp on CHO cells stably expressing hERG).
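Note: peak tail current of the secondary pulse compared with the same well before compound.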

Chain of human ether-à-go-go-related gene (hERG) potassium channel (Q12809 whole entry, looked up): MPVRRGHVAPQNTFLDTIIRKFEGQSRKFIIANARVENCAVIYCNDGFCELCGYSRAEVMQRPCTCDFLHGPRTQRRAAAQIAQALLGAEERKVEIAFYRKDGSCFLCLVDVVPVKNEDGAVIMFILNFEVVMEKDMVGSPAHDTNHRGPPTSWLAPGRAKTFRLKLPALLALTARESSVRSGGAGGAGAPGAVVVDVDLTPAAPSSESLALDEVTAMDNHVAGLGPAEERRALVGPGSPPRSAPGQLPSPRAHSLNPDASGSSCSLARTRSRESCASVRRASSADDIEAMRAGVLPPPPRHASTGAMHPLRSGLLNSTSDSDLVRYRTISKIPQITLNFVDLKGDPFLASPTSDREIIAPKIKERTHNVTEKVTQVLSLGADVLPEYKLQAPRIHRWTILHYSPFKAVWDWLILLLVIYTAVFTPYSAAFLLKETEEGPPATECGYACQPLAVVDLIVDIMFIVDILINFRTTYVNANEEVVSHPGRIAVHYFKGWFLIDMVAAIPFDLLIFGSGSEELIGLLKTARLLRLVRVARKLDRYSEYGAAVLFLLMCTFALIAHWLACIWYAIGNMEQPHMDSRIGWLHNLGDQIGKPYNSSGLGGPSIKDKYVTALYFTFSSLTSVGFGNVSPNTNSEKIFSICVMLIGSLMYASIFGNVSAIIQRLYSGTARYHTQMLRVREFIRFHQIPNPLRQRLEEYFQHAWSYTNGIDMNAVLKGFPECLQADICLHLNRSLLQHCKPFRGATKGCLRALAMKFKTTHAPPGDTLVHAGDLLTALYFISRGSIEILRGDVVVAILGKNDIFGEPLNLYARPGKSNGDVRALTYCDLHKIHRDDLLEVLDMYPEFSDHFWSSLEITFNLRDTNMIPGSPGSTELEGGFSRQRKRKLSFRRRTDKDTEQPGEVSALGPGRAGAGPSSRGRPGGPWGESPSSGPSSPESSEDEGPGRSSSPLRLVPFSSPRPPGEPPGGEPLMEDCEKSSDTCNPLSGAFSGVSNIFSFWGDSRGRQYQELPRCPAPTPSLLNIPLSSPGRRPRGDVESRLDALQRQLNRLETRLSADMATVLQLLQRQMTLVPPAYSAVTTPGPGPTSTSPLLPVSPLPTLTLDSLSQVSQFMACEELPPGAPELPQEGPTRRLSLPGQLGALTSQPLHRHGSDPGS

SMILES | hERG current change (%, negative = inhibition) at 10uM [%]
COC(=O)C1C(O)C(C)C(O)C(C)(O)/C=C\C=C(/C)C(=O)Nc2c(C)c(OC(C)=O)c3c(c2O)C(=O)C(C)=C2OCOC(=C23)/C(C)=C/C(C)(O)C(O)C(C)C1O (stereo not shown) | 9.52
COc1ccc(NC(=O)c2ccccc2O)c(OC)c1 | -7.13
CC(=O)Nc1ccc(-c2cc(NC(C)=O)n(-c3ccccc3)n2)cc1 | 12.1
CCOC(=O)N1CCN(c2c(NCCCN(CC)Cc3ccccc3)c(=O)c2=O)CC1 | 16.8
CCCNC(=S)Nc1ccc(Nc2ccccc2)cc1 | -15
CCN(CC)C(=O)Oc1ccc2c(=O)c(-c3ccc(OC)cc3)coc2c1 | 15.2
CC(=O)Nc1ccc(OC(=O)N(C)c2ccccc2)cc1 | 11
COCCN(CCOC)Cc1c(O)ccc2c1O/C(=C\c1ccco1)C2=O | 10.8
COc1cc(S(=O)(=O)NCCN2CCOCC2)ccc1-n1cnnn1 | 17.5
CCN1C(=NCC(C)C)N[C@@H](c2cccc(C(F)(F)F)c2)C(C(=O)OC)=C1C | -23.9
CC(C)COc1ccc(CNC(=S)NCc2ccccc2)cc1 | 7.8
Cc1ccccc1C(=O)N1CCC(C(=O)O)CC1 | 2.25
COc1ccc(C(C(=O)NC2CCCCC2)N(Cc2cccs2)C(=O)Cc2c[nH]c3ccccc23)cc1 (stereo not shown) | -3.43
CC(=O)c1ccc(S(=O)(=O)N2CCN(C)CC2)cc1 | 7.65
CC(C)CCn1c(O)c(N=Nc2ccccn2)c2ccccc21 | -9.55
COc1ccc(C(NC(=O)c2cccc(F)c2)c2ccccc2)cc1 (stereo not shown) | 14.1
c1ccc2c(C3=NNC(=NC4CC4)SC3)c[nH]c2c1 | -20.1
Cc1cc(NS(=O)(=O)c2ccc(NC(=S)NC(=O)c3ccncc3)cc2)no1 | 5.68
COC(=O)c1ccccc1NC(=O)C12CCC(C)(C(=O)O1)C2(C)C (stereo not shown) | -2.05
CC(CCc1ccccc1)NC(=O)c1ccccc1Cl (stereo not shown) | -4.82
C=CCOc1cccc(C2NC(=O)c3ccccc3O2)c1 (stereo not shown) | 21.4
C/C(=N\NC(=O)c1c(C)nc2ccccn12)c1ccco1 | -0.583

SMILES | hERG current change (%, negative = inhibition) at 10uM [%]
O=C(NCc1ccco1)c1csc2c1CCCCC2 | 0.209
O=C(CSc1nc(-c2ccco2)cc(C(F)(F)F)n1)NC1CCCC1 | -3.44
O=C1OCCN1c1c(-c2ccccc2)c(N2CCOCC2)nc2ccccc12 | -25.8
O=C(NNC1=NC2(CCCC2)Cc2ccccc21)c1ccncc1 | 4.98
Cc1ccc(NC(=S)Nc2cccc3cnccc23)cc1C | 7.79
CCNC(=O)CN(c1ccc(C)cc1)S(=O)(=O)c1ccccc1 | 7.75
CCN(CC)S(=O)(=O)c1ccc(N2CCCC2)c(NS(=O)(=O)c2ccc([N+](=O)[O-])cc2)c1 | -7.41
O=[n+]1cc(-c2ccccc2)n([O-])c2c1CCC2 | 14.5
CC(O)C(=O)O.Cc1ccc(CN(CC(O)COc2cccc3[nH]cc(C)c23)C(C)(C)C)cc1 (stereo not shown) | -60.8
CC(C)(C)NC(=S)N/N=C/c1cc(Br)c(O)c(Br)c1 | 29.8
Cc1ccc[n+](CC(=O)c2ccc(-c3ccccc3)cc2)c1.[Br-] | -52.4
Cn1nc(CC(=O)NCc2cccc3ccccc23)c2ccccc2c1=O | -5.46
CN(/N=C/c1cccnc1)c1cnc2ccccc2n1 | -14.4
COCCCNC(=O)CN(c1cc(OC)ccc1OC)S(=O)(=O)c1ccccc1 | 7.54
CN(C(=O)c1nn(C)c2c1CSc1ccccc1-2)c1ccccc1Cl | 3.14
C(=N\Nc1nc(Nc2ccccc2)nc(Nc2ccccc2)n1)/c1ccncc1 | 15.7
Cc1ccc(S(=O)(=O)N(C)C)cc1NC(=O)CN1C(=O)NC2(CCCCCC2)C1=O | -4.93
O=C(CCc1[nH]c2ccccc2c1Sc1ccccc1)N(CCO)CCO | -12
COc1ccccc1NC(=O)c1csc(-n2nc(C)cc2C(F)(F)F)n1 | -4.7
COc1ccc(OC(=O)CCCN2C(=O)c3ccccc3C2=O)cc1 | -6.92
O=C(O)CC1SC(N/N=C/c2ccc(Br)cc2)NC1=O (stereo not shown) | 6.6
CC(=O)c1cc(C#N)c(N2CCOCC2)nc1C | 8.69

SMILES | hERG current change (%, negative = inhibition) at 10uM [%]
Cc1ccc(N(C(=O)C2COc3ccccc3O2)C(C(=O)NC2CCCCC2)c2cn(C)nc2C)cc1 (stereo not shown) | 0.406
COCc1[nH]nc2c1C(c1ccc(OC)c(OC)c1)C(C#N)=C(N)O2 (stereo not shown) | 12.2
COc1ccc(Br)cc1CN(C)CC(=O)NCCc1ccccc1.O=C(O)C(=O)O | -14.7
NC(=O)CC1(CC(=O)O)CCCCC1 | 10.1
COc1ccc(C(=O)/C=C2\NCC3c4ccccc4CCN3C2=O)cc1 (stereo not shown) | -18.7
CCN(CC)CCN(C(=O)c1ccc2ccccc2c1)c1nc2ccc(OC)cc2s1.Cl | -30
COCCn1c(SCC(=O)c2c(-c3ccccc3)n(C)c3ccccc23)nnc1-c1ccncc1 | -22.4
CC(C)COC(=O)N1CCCC1C(=O)O (stereo not shown) | -1.68
O=C(CN1CCOCC1)NN=C(c1ccccc1)c1ccccc1 | 20.8
N#Cc1ncccc1CCc1cccc(Cl)c1 | -11.1
Clc1ccccc1NC1=NCCCS1 | 11.7
COc1ccc(CCNC(=O)Cc2ccc(C)cc2)cc1OC | 16.4
Cc1ccc(C)n1C1CCS(=O)(=O)C1 (stereo not shown) | 10.2
Cc1cccc(C)c1NC(=O)C(=O)NCCc1c[nH]c2ccccc12 | 11.1
Cc1cc2nc3c(nc2cc1C)C(O)=C3O | 15
CCS(=O)(=O)CCSc1nc2ccccc2s1 | -1.98
Cc1cc(C)n2nc(C(=O)Nc3nnc(C4CC4)s3)nc2n1 | 15.1
CCOc1cc(CN2CCCCCC2)ccc1OC | -3.28
Cc1ccc(S(=O)(=O)N(C)c2cc(S(N)(=O)=O)c(C)cc2C)cc1 | -11.6
O=C(Cc1ccc(F)cc1)N/N=C/c1ccc2c(c1)OCO2 | 20.4
O=[N+]([O-])c1ccccc1/C=N/N1CCN(c2ccc(Cl)cc2)CC1 | -10.9
O=C(c1cccc(N2C(=O)c3ccccc3C2=O)c1)N1CCCC(C(F)(F)F)C1 (stereo not shown) | -53.9

SMILES | hERG current change (%, negative = inhibition) at 10uM [%]
COc1ccc(-c2nc(-c3cccs3)c(-c3cccs3)[nH]2)cc1O | -7.87
O=C1CC(N2CCN(c3ccccc3)CC2)C(=O)N1c1cccc(Cl)c1 (stereo not shown) | 8.61
COc1ccccc1-c1cc(C(F)(F)F)nc(S(=O)(=O)CCCC(=O)NC(C)C)n1 | 1.53
CCOCCCNC(=O)C(c1ccccc1)N(Cc1cccs1)C(=O)c1ccccc1O (stereo not shown) | 14.3
O=C(Nc1ccc(-c2nc3ccccc3s2)cc1)c1cc(-n2cnnc2)ccc1Cl | -0.0347
O=C(COc1ccccc1F)Nc1cc(S(=O)(=O)Nc2cccc(Cl)c2)ccc1O | 21.7
COc1cc(CCC(=O)OCC(=O)Nc2ccc(C)cc2Cl)cc(OC)c1OC | 11.8
O=C(CN(c1ccc(Cl)c(C(F)(F)F)c1)S(=O)(=O)c1ccccc1)N/N=C/c1cccc2c1OCCO2 | 24.1
COc1cc(C(=O)Nc2ccc(C)cc2)c2ccccc2n1 | 12.8
CN1C(=O)CC(c2ccco2)Sc2ccccc21 (stereo not shown) | -17.1
COc1ccc(NC(=O)C2CCN(S(=O)(=O)c3cn(C)nc3C)CC2)cc1 | -3.97
COc1ccc(-c2nc3c(-c4ccc(Cl)cc4)cnn3cc2C)cc1F | 26.8
CSc1ccc(C(=O)C2CCCN(S(=O)(=O)c3c(C)noc3C)C2)cc1 (stereo not shown) | 16.6
Cc1cc(C)c2[nH]c(=O)c(CN(Cc3ccco3)C(=S)NCC3CCCO3)cc2c1 (stereo not shown) | 1.6
O=C(COC(=O)COc1ccc2ccccc2c1)Nc1cc(C(F)(F)F)ccc1N1CCOCC1 | 7.69
O=C(NCc1ccc2c(c1)OCO2)NC12CC3CC(CC(C3)C1)C2 | 14.8
COc1ccc(C(=O)COC(=O)c2cc(S(=O)(=O)NCc3ccccc3)ccc2O)cc1 | 2.47
COCCOC(=O)C1=C(C)NC(=O)NC1c1c(Cl)nc2ccccn2c1=O (stereo not shown) | 2.73
CC(C)(C)NS(=O)(=O)c1ccc(NC(=S)NC(=O)C2CC2)cc1 | 15.6
Nc1ccc(C2(c3ccc(N)cc3)OC(=O)c3ccccc32)cc1 | -6.43
O=C(NC1CCCC1)C(c1ccc(F)cc1)N(C(=O)c1csnn1)C1CC1 (stereo not shown) | -8.2
O=C1NCCN/C1=C\C(=O)c1cccc(Br)c1 | -11.9
